Test results taken from PubChem BioAssay AID445 (National Center for Advancing Translational Sciences (NCATS), 2006).
Out of some 110,000 compounds screened, about 40 (0.04%) were called active. The shares of active, inactive and inconclusive entries below differ from those in the screen. The call rests on the fitted dose curve; in most records, active means well fitted curve in the direction sought with a large enough effect in the signal ratio (not every such curve was filed as active); inconclusive means small, poorly fitted or top-dose-only effect, or a change in a side signal; inactive means flat fitted curve, though single readings scatter; the % refers to the signal ratio. Potencies of inconclusive entries are doubtful fits and often do not repeat.

experiment: IkB Signaling; conditions: ABC-DLBCL IkBa-CBG/CBR dual luciferase ratio (green luciferase fused to IkBa over red control in OCI-Ly3 lymphoma cells), 4 h; IkBa stabilization activation: at 57.1 µM (top of the series), scaled: untreated 0%, proteasome inhibitor 100% unless noted;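 on IkBa stabilization activation: 0% = basal untreated cells and 100% = reference inhibitor full response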
Summary of the method: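 In this assay, an IκBα–CBG68 fusion accumulates when IKK-driven degradation is blocked; native CBR normalizes for cell number. OCI-Ly3 cells were treated 4 h with compound and doxycycline, then green and red light read after Chroma-Glo addition.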
Potency means the concentration at half of the fitted maximal effect.

SMILES | IkBa stabilization activation | Potency
COc1ccc(N(C(=O)c2ccco2)S(=O)(=O)c2cccs2)cc1 | inactive: -0.89% | 
COc1ccc(CN2CCc3nc(N4CCN(c5ccc(F)cc5)CC4)ncc3C2)c(OC)c1OC | inconclusive: 1.74% [signal inhibitor] | 
O=C(c1cnn(-c2ccc(F)cc2)c1-n1cccc1)N1CCN(c2cccc(Cl)c2)CC1 | inconclusive: -0.0582% [signal inhibitor] | 
Cc1cccc(OCCCCc2c(C)n[nH]c2C)c1C |  | inconclusive: 31.6 µM [rising, single point]
O=C(CSc1nnc2[nH]c(=O)cc(-c3ccccc3)n12)Nc1ccccc1C(F)(F)F | inactive: 1.54% | 
CCc1nc(N)c(C#N)c(-c2ccco2)c1C | inactive: -1.79% | 
Fc1ccc(-c2nnn3c2nc(NCc2ccccc2)c2ccccc23)cc1 |  | inconclusive: 0.794 µM [signal inhibitor, full curve]
O[C@@H](COc1cccc2ccccc12)CN1CCOCC1 | inactive: 0.0318% [at 11.4 µM, scaled: untreated 0%, proteasome inhibitor 100%] | 
NC(=O)C1CCC(NC(=O)OCc2ccccc2)CC1 (centres undefined) | inactive: -0.444% | 
Cc1ccccc1N(CC(=O)Nc1ccccc1C(=O)O)S(C)(=O)=O |  | inconclusive: 3.98 µM [signal inhibitor, full curve]
O=C1CN(C(=O)c2c(F)cccc2Cl)C(c2ccc(F)cc2)c2cc(Br)ccc2N1 (centres undefined) | inconclusive: 9.16% [signal inhibitor] | 
COc1ccc2nc(Nc3ccc4c(c3)OCO4)sc2c1 | inactive: 3.04% | 
CN(C(=O)CSc1nc2ccc(NC(=O)c3cccs3)cc2s1)c1ccccc1 | inconclusive: 3.84% [signal inhibitor] | 
Cc1c(N=c2c(=O)c3ccccc3c2=O)c(=O)n(-c2ccccc2)n1C |  | inconclusive: 31.6 µM [rising, single point]
COC(=O)c1cccc(CN2C(=O)SC(Nc3ccccc3C)C2=O)c1 (centres undefined) | inconclusive: 4.43% [signal inhibitor] | 
O=C(c1ccc(-c2cccc(C(F)(F)F)c2)o1)N1CCOCC1 | inactive: -5.61% | 
CCc1ccc(CNC(=O)C2CCN(C(=O)c3ccc(-n4c(C)cc5ccccc54)s3)CC2)cc1 | inconclusive: 3.33% [signal inhibitor] | 
CC(C)C[C@H](NC(=O)OC(C)(C)C)c1nnc(SCC(=O)Nc2ccc(Br)cc2)o1 | inconclusive: 15.1% [signal inhibitor] | 
Cc1ccc(NC(=O)C2CCCN(S(=O)(=O)c3ccc4c(c3)CCCC(=O)N4)C2)cc1N(C)C (centres undefined) | inconclusive: -0.0881% [signal inhibitor] | 
CCCn1c(-c2ccc(OC)cc2)nc2ccccc21 | inconclusive: 0.00256% [signal inhibitor] | 
COc1cccc(NC(=O)c2ccccc2-c2nc(-c3ccc(Cl)cc3)no2)c1 | inconclusive: 6.02% [signal inhibitor] | 
Cc1ccc(-c2ccc(CCC(=O)O)n2-c2ccc(C)c(Cl)c2)cc1 | inconclusive: -2.4% [signal inhibitor] | 

SMILES | IkBa stabilization activation | Potency
O=C1CCSC2(C(=O)N(Cc3ccccc3)c3ccccc32)N1c1ccccc1 (centres undefined) | inconclusive: 0.678% [signal inhibitor] | 
CCOC(=O)c1cnc(N(C)C)nc1SC(=N)N | inactive: -0.378% [at 11.4 µM, scaled: untreated 0%, proteasome inhibitor 100%] | 
CC(=O)N1c2ccc(S(=O)(=O)NCC3CCC(C(=O)Nc4cccc(C)c4)CC3)cc2CC1C (centres undefined) | inconclusive: 0.8% [signal inhibitor] | 
COc1ccc(-c2cc(C(F)(F)F)nc(N3CCCCCC3)n2)cc1 | inactive: 0.484% | 
CCc1ccc2nc(N3CCC(C(=O)NCCC(C)C)CC3)sc2c1 | inconclusive: 10.3% [signal inhibitor] | 
CCN(Cc1ccccc1)S(=O)(=O)c1ccc(N2CCCCS2(=O)=O)cc1 | inconclusive: 1.39% [signal inhibitor] | 
CCn1cc(C(=O)O)c(=O)c2ccc(Cc3ccccc3)nc21 | inactive: -0.22% | 
COc1ccc(-c2nnc(CSc3nc4ccccc4c(=O)n3CC(C)C)o2)cc1OC | inconclusive: 4.23% [signal inhibitor] | 
Cc1ccc(NC(=O)C(=O)NCC(c2ccc3c(c2)OCO3)N2CCN(C)CC2)cc1C (centres undefined) | inconclusive: 2.06% [signal inhibitor] | 
CN(C)c1ccc(-c2nc(N(C)Cc3ccco3)c3ccccc3n2)cc1 | inactive: -4.99% [at 11.4 µM, scaled: untreated 0%, proteasome inhibitor 100%] | 
Cc1nc2cc3nc(C)sc3cc2s1 | inactive: -0.735% | 
Cc1ccc(-c2noc(-c3cccs3)n2)cc1 | inactive: 2.48% | 
CCOC(=O)c1c(-c2cccs2)csc1NC(=O)COC(=O)c1c(C)noc1C | inconclusive: 5.61% [signal inhibitor] | 
Cc1ccccc1Cn1c(C)c(CNCCCc2ccccc2)c(C(=O)O)c1C | inconclusive: 1.84% [signal inhibitor] | 
COc1ccccc1Nc1nc(N)nc(-c2cc3ccccc3o2)n1 | inactive: -0.09% | 
Cc1ccccc1Nc1c(-c2c[nH]c3ccccc23)nc2cccc(C)n12 |  | inconclusive: 0.398 µM [signal inhibitor, partial curve]
Cc1ccc(NC(=O)CCc2nc3cccnc3n2-c2ccccc2)cc1Cl | inconclusive: 3.94% [signal inhibitor] | 
O=c1c2sc3ccccc3c2n(Cc2ccc(Cl)cc2)c(=O)n1Cc1ccco1 | inconclusive: -0.31% [signal inhibitor] | 
Clc1ccccc1-c1nc(-n2ccnc2)c2ccccc2n1 | inactive: 0.204% [at 11.4 µM, scaled: untreated 0%, proteasome inhibitor 100%] | 
Cc1cccc(NC(=O)Cn2cnc3sc(C)c(S(=O)(=O)N4CCC(C)CC4)c3c2=O)n1 | inconclusive: 13.9% [signal inhibitor] | 
Cc1ccc(N(Cc2cccs2)C(=O)c2ccccc2[N+](=O)[O-])cc1 | inconclusive: -0.118% [signal inhibitor] | 
CCCOc1cccc(C(=O)N2CCCCC2CCN2CCCCC2)c1 (centres undefined) | inactive: -0.245% | 
